According to the supplement of paper PMC10126150:
Sequences with one replicate were seen in a single cluster, so their values are uncertain.

System: ATP
Assay: switch fluorescence ratio, 500 uM ATP over buffer (Cy3 cluster intensity, sum of 5 cycles each) (fold (ratio)); higher = stronger signal-on switching upon ATP binding; sequences stand for … in TCGTCGGCAGCGTCAGATGTGTATAAGAGACAGTTTTTTTTTTTTTTTTTTTTTTTTT…TC
Conditions: aptamer strand: ATP DNA aptamer (quencher-CACCTGGGGGAGTATTGCGGAGGAAGG + anchor), 100 nM annealed; ATP concentration: 500 uM; one replicate
Procedure, shortened: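 Clusters carrying Cy3-labelled switching strands on a modified Illumina MiSeq flow-cell were annealed to 100 nM quencher-labelled ATP aptamer and imaged in selection buffer. They were imaged again after 15 min with 500 uM ATP at 22 °C, over five buffer/ATP cycles with NaOH stripping and re-annealing in between. For each cluster, the fluorescence ratio is the summed Cy3 intensity of the target cycles divided by that of the buffer cycles, averaged per switch-domain sequence. Clusters outside 100-1000 RFU were left out.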
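Further: ATP exposure 15 min at 22 °C before imaging.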

| Sequence | switch fluorescence ratio |
| --- | --- |
| GGGGCCCTAC | 0.989 |
| TGGTACAAGT | 1.02 |
| GATGTCAAGC | 1.03 |
| TCTCCGAGAG | 1.84 |
| AGCATTAGAT | 1.02 |
| GACGGCTCTT | 1.08 |
| AGTTACGGGG | 1.01 |
| TCGTGCCGAG | 1.02 |
| TGGGACTTCA | 0.958 |
| TTCTTACTCG | 0.992 |
| GGGAATTTAT | 1.03 |
| TACTCCTGT | 1.05 |
| CCCGGTAGCG | 1.02 |
| TGGCCCAGAG | 1.07 |
| GGACTTTGAA | 0.981 |
| ACTTTGTGGT | 0.982 |
| GGGTCTGAAG | 0.953 |
| CGTCGAAGTG | 0.994 |
| TAGTAATAGG | 1.06 |
| TTGGGAAAGC | 0.974 |
| GGCGTGTTCA | 1 |
| AATGTACATC | 1.06 |
| TTGAACCAA | 1.03 |

| Sequence | switch fluorescence ratio |
| --- | --- |
| GCTAGAATTT | 1.07 |
| TGCTATATGC | 0.964 |
| GAGTATCAAT | 1.04 |
| TCTTCGGCCA | 1.06 |
| GTAATGGTAG | 1.02 |
| GTACGGGTAG | 1.05 |
| AAAACGGGGA | 0.958 |
| TACGCTTGAC | 1.69 |
| GCAGGTTCCT | 1.03 |
| CCACTCAAGT | 1.01 |
| GACCTTCATT | 1.26 |
| ATCAGTGATA | 1.08 |
| ACCCTAGCCT | 1.13 |
| TTCGCCATGA | 1.06 |
| TACAAGTCCT | 0.976 |
| AAACTCTATG | 0.981 |
| TGAAGCAGCA | 1.15 |
| GTCCCATCGG | 0.977 |
| AGAGATACAT | 1.02 |
| TTTTAGGT | 0.93 |
| AATAGGTGCC | 1.03 |
| AAAACAGGGG | 0.991 |
| CCAAGGAGTG | 1.04 |

| Sequence | switch fluorescence ratio |
| --- | --- |
| ATGCAGATGC | 1.03 |
| CAGTAGGTCA | 0.981 |
| TTTGTGTGT | 1.01 |
| TATAAAGTCA | 0.985 |
| AACTCTCAGG | 1.3 |
| AGGATCAAGC | 1 |
| GTTTAATCGG | 1.02 |
| TATGACAGAC | 1.06 |
| ATCGATAACG | 0.978 |
| AGAGCCTAGG | 1.04 |
| CACAATGGGT | 1.04 |
| GACAATGTTG | 1.09 |
| GGATATAGGA | 0.969 |
| TCCCGTATCG | 0.987 |
| GGCTGTCT | 1 |
| AGGTATAAAC | 1.02 |
| GTCGTACAAG | 0.98 |
| ATTACCTCCC | 1.6 |
| CGCACATAGG | 1.29 |
| CTGTATCGAT | 0.995 |
| CTGAGGAGCC | 1 |
| TCCATTGTT | 0.977 |
| TATCATAAAC | 1.03 |

| Sequence | switch fluorescence ratio |
| --- | --- |
| GGATGACCGT | 0.978 |
| TTGCGGATTC | 1.06 |
| GTAGAATGAC | 1.04 |
| GCGGACGTTA | 1.04 |
| TCCCTGGCTA | 1.02 |
| CCAAGGCTCG | 0.989 |
| ATATTTTCTG | 0.968 |
| ATAGTTCGCT | 1 |
| CAGGTAGGCT | 1.05 |
| TTAGCTGCTA | 0.975 |
| GGAACCCAGG | 3.04 |
| ACAGAGCCGC | 1.08 |
| GCAAGGTCGG | 0.995 |
| TTTTCCGGGA | 1.01 |
| CTAATTGTAC | 1.06 |
| CACAAAACAA | 1.01 |
| TGGTAAGTCT | 0.992 |
| TTAAACGATC | 0.993 |
| CATCAAGAAA | 0.95 |
| AAAACCCAAG | 1.09 |
| TGAACGCACA | 2.15 |
| CACCTTGGTA | 0.984 |
| GAAGAGAGTT | 0.968 |

| Sequence | switch fluorescence ratio |
| --- | --- |
| TACGCTGTCC | 1.1 |
| GGGTCAAATG | 1.01 |
| ATTAATGTTC | 1.02 |
| AAATAGGCTC | 1.01 |
| TCCATTCCTG | 1.03 |
| CTATCGTGTT | 0.976 |
| CTCAAGGA | 1.01 |
| TATATCAGTA | 1.05 |
| TGTGATCTAC | 1.05 |
| GTCATCAGCT | 1.02 |
| CTCGGGTAGA | 1.05 |
| GATGTCAATT | 1.01 |
| CACGAGCGGT | 1.1 |
| GCGTCGGATG | 0.988 |
| GCCAGTAAAC | 1.05 |
| TATGTTCACT | 1.01 |
| TGGATCAGAC | 1.07 |
| GGGTCGACGG | 0.969 |
| GAGGTAAAGA | 1.05 |
| AAAGTTGCTC | 1.05 |
| GATTAATCTT | 1.01 |
| AGTGTCTTCG | 1.03 |
| CACGCGACGG | 1.39 |

| Sequence | switch fluorescence ratio |
| --- | --- |
| ACATCGGCGA | 1.03 |
| GCCCATAGTA | 1.02 |
| CACTCAGCGT | 1.14 |
| ACATTTGCTG | 1 |
| CATGCGTTT | 1 |
| AATGTAACTC | 1.02 |
| CGGTGTTCCT | 0.988 |
| CTAATTGTAA | 0.983 |
| AGAATGACAG | 0.982 |
| AATGATTTAA | 1.01 |
| ACTATTTAAA | 0.985 |
| CGAGTGAGTA | 1.05 |
| GAGGGCCTTG | 0.974 |
| TCCGCGTTG | 1.19 |
| AGAACGCCGG | 0.947 |
| GCGATTAGGT | 1.02 |
| ACTAACCTAT | 1.1 |
| GATTGCAGCA | 0.966 |
| CGGGTTAGCG | 0.974 |
| TTCTGCGCAT | 2.61 |
| TCAGGACATG | 0.944 |
| TTAGTAGTAA | 1.03 |
| CTGCCATTGT | 0.987 |

| Sequence | switch fluorescence ratio |
| --- | --- |
| GATCTTCAGG | 1.02 |
| TGTCCCAAGA | 0.993 |
| TTGAGTTGGC | 0.989 |
| TCCGCGCGCG | 1.02 |
| AGGACGTGTC | 0.92 |
| GATAATTACA | 1.03 |
| CAGCAGCCCT | 1.16 |
| TGCTTTCTCA | 1.07 |
| TGTTGCGCTG | 0.99 |
| GAATTAACGT | 0.976 |
| GGAAGCCCAC | 1.06 |
| AGCGGTTTAT | 0.98 |
| CAGTTGGAGA | 0.991 |
| GCGCGCGGGT | 0.997 |
| GGCGGTGGTT | 1.04 |
| GGGTATCAAC | 0.968 |
| ATTTTCTCG | 0.961 |
| GTTAAGTACT | 1.33 |
| ATGGTTAGTC | 1.02 |
